# In the supplement of paper PMC4604168 (melanoma cell lines):
# The list shows a part of the results. Single values are uncertain, as repeats are few or missing.
# System: LOXIMVI
# Test: cell count relative to DMSO control; melanoma cells; higher = more viable cells
# Details: library dose: standard library concentration; 72 h
# 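Further: cells treated in 1,536-well plates, then fixed and DAPI-stained, with nuclei counted from automated high-throughput microscope images.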
row,Structure (SMILES),cell count [%]
1,"CCCCCCCCc1ccc(CCC(N)(CO)CO)cc1 [fingolimod] + Cc1cc(Nc2cc(N3CCN(C)CC3)nc(/C=C/c3ccccc3)n2)n[nH]1 [ENMD2076] (first compound 10 µM, partner dose 0.2 µM)",54
2,"NC(=O)c1ccc(N(C(N)=O)c2c(F)cccc2F)nc1-c1ccc(F)cc1F + COc1ccc(-c2ccc3c(N4CCOCC4)nc(N4C[C@@H](C)O[C@@H](C)C4)nc3n2)cc1CO [KU0063794] (first compound 2 µM, partner dose 0.1 µM)",121
3,"CCCCCCCCc1ccc(CCC(N)(CO)CO)cc1 [fingolimod] + O=S(=O)(c1ccccc1)N(CC(F)(F)F)c1ccc(C(O)(C(F)(F)F)C(F)(F)F)cc1 [T0901317] (first compound 10 µM, partner dose 7 µM)",23.1
4,"CCCCCCCCc1ccc(CCC(N)(CO)CO)cc1 [fingolimod] + c1cc(-c2cnn3cc(-c4ccc(OCCN5CCCCC5)cc4)cnc23)ccn1 [Dorsomorphin] (first compound 10 µM, partner dose 2 µM)",37.3
5,"CC(C)(C)c1cnc(CSc2cnc(NC(=O)C3CCNCC3)s2)o1 + NCC(=O)Nc1ccc(-n2nc(C(F)(F)F)cc2-c2ccc3c(ccc4ccccc43)c2)cc1 [OSU03012] (first compound 0.05 µM, partner dose 5 µM)",57.5
6,"NC(=O)c1ccc(N(C(N)=O)c2c(F)cccc2F)nc1-c1ccc(F)cc1F + O=C(Nc1ccccc1)c1cc([N+](=O)[O-])ccc1Cl [GW9662] (first compound 2 µM, partner dose 10 µM)",54.1
7,"CCCCCCCCc1ccc(CCC(N)(CO)CO)cc1 [fingolimod] + N#Cc1c(O)c2c(-c3ccc(-c4ccccc4O)cc3)csc2[nH]c1=O [A769662] (first compound 10 µM, partner dose 10 µM)",22.5
8,"CCCCCCCCc1ccc(CCC(N)(CO)CO)cc1 [fingolimod] + CC(C)CCN1c2nc(Nc3cc(F)c(O)c(F)c3)ncc2N(C)C(=O)C1C [BID1870] (first compound 10 µM, partner dose 1 µM)",62.5
9,"NC(=O)c1ccc(N(C(N)=O)c2c(F)cccc2F)nc1-c1ccc(F)cc1F + N#Cc1c(O)c2c(-c3ccc(-c4ccccc4O)cc3)csc2[nH]c1=O [A769662] (first compound 2 µM, partner dose 10 µM)",125
10,"CCCCCCCCc1ccc(CCC(N)(CO)CO)cc1 [fingolimod] + O=C(O)c1ccc(-c2c[nH]c3ncc(-c4ccccc4)cc23)cc1C1CCCC1 [GSK650394] (first compound 10 µM, partner dose 0.8 µM)",4.51
11,"CCCCCCCCc1ccc(CCC(N)(CO)CO)cc1 [fingolimod] + CCN(CC)CCCCNc1ncc2cc(-c3cc(OC)cc(OC)c3)c(NC(=O)NC(C)(C)C)nc2n1 [PD173074] (first compound 10 µM, partner dose 0.5 µM)",76
12,"NC(=O)c1ccc(N(C(N)=O)c2c(F)cccc2F)nc1-c1ccc(F)cc1F + CCCCCCCCCCCC1=C(O)C(=O)C=C(O)C1=O [Embelin] (first compound 2 µM, partner dose 6 µM)",119
13,"CCCCCCCCc1ccc(CCC(N)(CO)CO)cc1 [fingolimod] + O=C(Nc1ccccc1)c1cc([N+](=O)[O-])ccc1Cl [GW9662] (first compound 10 µM, partner dose 10 µM)",16.6
14,"NC(=O)c1ccc(N(C(N)=O)c2c(F)cccc2F)nc1-c1ccc(F)cc1F + Cn1cc(/C=C2\C(=O)Nc3cccnc32)c2ccccc21 [GW441756] (first compound 2 µM, partner dose 2 µM)",134

# System: MEL-HO
# Test: as above
# Details: library dose: standard library concentration; 72 h
row,Structure (SMILES),cell count [%]
1,"NC(=O)c1ccc(N(C(N)=O)c2c(F)cccc2F)nc1-c1ccc(F)cc1F + O=C1NC(=O)/C(=C/c2ccc(-c3ccc(F)cc3O)o2)S1 [AS252424] (first compound 2 µM, partner dose 5 µM)",83.4
2,"NC(=O)c1ccc(N(C(N)=O)c2c(F)cccc2F)nc1-c1ccc(F)cc1F + COc1ccc(COc2ccc(Cc3cnc(N)nc3N)cc2OC)cc1 [GW2580] (first compound 2 µM, partner dose 5 µM)",90.8
3,"NC(=O)c1ccc(N(C(N)=O)c2c(F)cccc2F)nc1-c1ccc(F)cc1F + O=C(O)C(=O)Nc1sc2c(c1C(=O)O)CCNC2 [TCS401] (first compound 2 µM, partner dose 8.33333 µM)",83.4
4,"CC(C)(C)c1cnc(CSc2cnc(NC(=O)C3CCNCC3)s2)o1 + CC(C)CCN1c2nc(Nc3cc(F)c(O)c(F)c3)ncc2N(C)C(=O)C1C [BID1870] (first compound 0.05 µM, partner dose 1 µM)",70
5,"COc1cc2c(Oc3ccc4[nH]c(C)cc4c3F)ncnc2cc1OCCCN1CCCC1 [cediranib] + COc1ccc(-c2ccc3c(N4CCOCC4)nc(N4C[C@@H](C)O[C@@H](C)C4)nc3n2)cc1CO [KU0063794] (first compound 2 µM, partner dose 0.1 µM)",95.9
6,"CCc1ccc(CCOc2ccc(CC3SC(=O)NC3=O)cc2)nc1 (stereo not given) [pioglitazone] + Cn1cc(/C=C2\C(=O)Nc3cccnc32)c2ccccc21 [GW441756] (first compound 10 µM, partner dose 2 µM)",94.2
7,"NC(=O)c1ccc(N(C(N)=O)c2c(F)cccc2F)nc1-c1ccc(F)cc1F + O=c1cc(-c2cccc3c2Sc2ccccc2S3)oc(N2CCOCC2)c1 [KU55933] (first compound 2 µM, partner dose 5 µM)",84.3
8,"CN(NC(=O)CC(=O)NN(C)C(=S)c1ccccc1)C(=S)c1ccccc1 + CCc1ccc(CCOc2ccc(CC3SC(=O)NC3=O)cc2)nc1 [pioglitazone] (first compound 0.03 µM, partner dose 10 µM)",73.6
9,"NC(=O)c1ccc(N(C(N)=O)c2c(F)cccc2F)nc1-c1ccc(F)cc1F + c1cc(-c2cnn3cc(-c4ccc(OCCN5CCCCC5)cc4)cnc23)ccn1 [Dorsomorphin] (first compound 2 µM, partner dose 2 µM)",91.2
10,"Cc1ccc(NC(=O)c2cccc(N(C)C)c2)cc1NC(=O)c1ccc(O)cc1 + COc1ccc(-c2ccc3c(N4CCOCC4)nc(N4C[C@@H](C)O[C@@H](C)C4)nc3n2)cc1CO [KU0063794] (first compound 10 µM, partner dose 0.1 µM)",83.8
11,"NC(=O)c1ccc(N(C(N)=O)c2c(F)cccc2F)nc1-c1ccc(F)cc1F + CCN(CC)CCCCNc1ncc2cc(-c3cc(OC)cc(OC)c3)c(NC(=O)NC(C)(C)C)nc2n1 [PD173074] (first compound 2 µM, partner dose 0.5 µM)",118
12,"CCCCCCCCc1ccc(CCC(N)(CO)CO)cc1 [fingolimod] + Oc1nc(-c2ccc(C(F)(F)F)cc2)nc2c1CSCC2 [XAV939] (first compound 10 µM, partner dose 10 µM)",85.1
13,"NC(=O)c1ccc(N(C(N)=O)c2c(F)cccc2F)nc1-c1ccc(F)cc1F + COc1cc2ncnc(Nc3ccc(Oc4ccccc4)cc3)c2cc1OC [SrcI1] (first compound 2 µM, partner dose 10 µM)",79.2
14,"CCCCCCCCc1ccc(CCC(N)(CO)CO)cc1 [fingolimod] + Oc1cc(-c2nc(-c3ccccc3)[nH]c2-c2ccncc2)ccc1Cl [L779450] (first compound 10 µM, partner dose 1 µM)",3.06
15,"NC(=O)c1ccc(N(C(N)=O)c2c(F)cccc2F)nc1-c1ccc(F)cc1F + Oc1cc(-c2nc(-c3ccccc3)[nH]c2-c2ccncc2)ccc1Cl [L779450] (first compound 2 µM, partner dose 1 µM)",90.6
16,"COc1cc2c(Oc3ccc4[nH]c(C)cc4c3F)ncnc2cc1OCCCN1CCCC1 [cediranib] + COC(=O)c1sccc1S(=O)(=O)Nc1ccc(Nc2ccccc2)cc1OC [GSK0660] (first compound 2 µM, partner dose 5 µM)",95.4
17,"NC(=O)c1ccc(N(C(N)=O)c2c(F)cccc2F)nc1-c1ccc(F)cc1F + Cc1cc([N+](=O)[O-])ccc1NS(=O)(=O)c1cc(Cl)ccc1Cl [FH535] (first compound 2 µM, partner dose 5 µM)",48.9
18,"Cc1ccc(NC(=O)c2cccc(N(C)C)c2)cc1NC(=O)c1ccc(O)cc1 + N#Cc1c(O)c2c(-c3ccc(-c4ccccc4O)cc3)csc2[nH]c1=O [A769662] (first compound 10 µM, partner dose 10 µM)",78.5
19,"NC(=O)c1ccc(N(C(N)=O)c2c(F)cccc2F)nc1-c1ccc(F)cc1F + COc1cc(N2CCC(N3CCN(C)CC3)CC2)ccc1Nc1ncc(Cl)c(Nc2ccccc2S(=O)(=O)C(C)C)n1 [NVP-TAE684] (first compound 2 µM, partner dose 0.4 µM)",93.4
20,"CCc1ccc(CCOc2ccc(CC3SC(=O)NC3=O)cc2)nc1 (stereo not given) [pioglitazone] + COc1ccc2c(c1)CCC1C2CCC2(C)C(NCCCCCCN3C(=O)C=CC3=O)CCC12 [U73122] (first compound 10 µM, partner dose 2 µM)",78.2
21,"NC(=O)c1ccc(N(C(N)=O)c2c(F)cccc2F)nc1-c1ccc(F)cc1F + COc1ccc2c(c1)CCC1C2CCC2(C)C(NCCCCCCN3C(=O)C=CC3=O)CCC12 [U73122] (first compound 2 µM, partner dose 2 µM)",79.9
